Reference: PubChem BioAssay AID1347165 (National Center for Advancing Translational Sciences (NCATS), 2019)
In all, about 220,000 compounds went through this assay and about 5,700 (2.6%) were called active. Inconclusive results, whose numbers are uncertain, are shown with a selection of clear calls. The call rests on the fitted dose curve; in most records, active means well fitted inhibition curve with a large enough effect; inconclusive means small, poorly fitted or top-dose-only effect; inactive means no such curve, though single readings can be large or run the other way. Potencies beside an inconclusive call are fits to weak or partial responses and may not hold up.

Each compound was assayed against Lysine-specific demethylase 5B (Homo sapiens) (UniProt Q9UGL1) (assay: Primary screen for KDM5B Histone Demethylases FDH-coupled qHTS). Details: FDH-coupled NADH fluorescence (FDH is formaldehyde dehydrogenase); activity change, negative = inhibition: at 57.7 µM (top of the series) unless noted.
Summary of the method: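 Here, H3K4me3 peptide (12.5 µM in substrate mix) is demethylated by KDM5BΔAP, 200 nM final, after 10 min compound exposure. Formaldehyde product is coupled through FDH (0.25 U/mL in mix) to NADH fluorescence; 30-min ΔRFU feeds dose-response curves.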
Further: nearly all actives have a fitted effect of over 70% in size.
Potency means the concentration at half of the fitted maximal effect; tags describe the fitted curve by direction and shape.
Wherever activity change, negative = inhibition is given: 0% is about no effect.

Chain of UniProt Q9UGL1 (Q9UGL1 whole entry, looked up): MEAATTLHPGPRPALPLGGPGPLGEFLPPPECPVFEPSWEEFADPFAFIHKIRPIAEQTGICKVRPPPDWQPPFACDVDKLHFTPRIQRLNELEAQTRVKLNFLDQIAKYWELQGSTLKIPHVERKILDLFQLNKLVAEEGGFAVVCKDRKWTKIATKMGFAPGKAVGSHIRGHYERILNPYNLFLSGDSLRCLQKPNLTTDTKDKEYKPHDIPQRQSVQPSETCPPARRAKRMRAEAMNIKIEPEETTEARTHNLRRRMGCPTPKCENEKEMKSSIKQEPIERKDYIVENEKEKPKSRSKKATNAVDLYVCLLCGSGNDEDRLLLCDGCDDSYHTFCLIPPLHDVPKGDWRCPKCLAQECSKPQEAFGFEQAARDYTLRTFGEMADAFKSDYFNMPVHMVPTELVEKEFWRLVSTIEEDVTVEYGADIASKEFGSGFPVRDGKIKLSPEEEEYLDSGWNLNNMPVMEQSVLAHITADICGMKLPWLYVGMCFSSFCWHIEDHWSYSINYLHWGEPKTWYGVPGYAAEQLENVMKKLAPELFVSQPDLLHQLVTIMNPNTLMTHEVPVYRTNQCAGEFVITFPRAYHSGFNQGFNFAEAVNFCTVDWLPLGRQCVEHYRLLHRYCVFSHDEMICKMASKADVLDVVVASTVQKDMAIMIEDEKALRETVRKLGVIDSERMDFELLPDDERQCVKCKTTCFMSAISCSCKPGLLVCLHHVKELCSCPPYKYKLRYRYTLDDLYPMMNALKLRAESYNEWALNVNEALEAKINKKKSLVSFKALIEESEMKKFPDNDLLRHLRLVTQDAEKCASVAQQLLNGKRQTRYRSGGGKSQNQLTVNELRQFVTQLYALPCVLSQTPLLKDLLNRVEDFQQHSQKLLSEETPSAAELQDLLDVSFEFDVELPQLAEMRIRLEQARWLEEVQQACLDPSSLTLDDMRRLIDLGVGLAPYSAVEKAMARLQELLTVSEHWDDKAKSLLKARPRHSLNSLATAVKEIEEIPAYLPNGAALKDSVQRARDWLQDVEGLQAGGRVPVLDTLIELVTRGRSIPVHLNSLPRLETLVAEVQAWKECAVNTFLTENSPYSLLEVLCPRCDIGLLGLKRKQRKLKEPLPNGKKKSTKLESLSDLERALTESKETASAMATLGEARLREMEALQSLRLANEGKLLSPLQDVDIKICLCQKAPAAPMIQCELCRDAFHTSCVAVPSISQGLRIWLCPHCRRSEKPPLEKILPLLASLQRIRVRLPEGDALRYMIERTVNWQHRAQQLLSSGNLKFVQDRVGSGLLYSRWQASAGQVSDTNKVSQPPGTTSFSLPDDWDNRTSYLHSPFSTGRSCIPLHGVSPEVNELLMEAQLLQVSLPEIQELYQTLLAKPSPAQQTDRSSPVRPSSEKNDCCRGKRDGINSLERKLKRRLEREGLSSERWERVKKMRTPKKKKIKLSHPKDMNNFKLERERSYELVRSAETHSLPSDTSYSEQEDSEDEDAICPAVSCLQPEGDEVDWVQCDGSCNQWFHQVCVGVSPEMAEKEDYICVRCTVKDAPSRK

Row | SMILES | Potency | activity change, negative = inhibition
1 | Cc1c(CCC(=O)NCC(=O)NCC(=O)O)c(=O)oc2cc3oc4c(c3cc12)CCCC4 | inconclusive: 22.4 µM [inhibitor, single point] | –
2 | COc1ccccc1NC(=O)c1cc2ccc3cccnc3c2[nH]1 | inconclusive: 39.8 µM [inhibitor, single point] | –
3 | COc1ccc(-c2c(C)[nH]n3c(=O)c(Cl)c(C)nc23)cc1 | inactive | –
4 | c1csc(C2NCCc3sccc32)c1 (centres undefined) | inconclusive: 31.6 µM [inhibitor, single point] | –
5 | COc1ccc2c(C)c(CCC(=O)Nc3ccc(OC)c(OC)c3)c(=O)oc2c1 | inactive | –
6 | CC(C)C(C)NC(=O)CSc1ccc2ccccc2n1 (centres undefined) | inactive | –
7 | COc1ccc(Cl)cc1C(=O)N1CCN(C(=O)c2nnn3c2COC(c2ccccc2)C3)CC1 (centres undefined) | inactive | –
8 | Cc1cc(C)cc(Nc2nc(NCc3ccco3)nc3c2cnn3-c2ccccc2)c1 | inconclusive: 35.5 µM [inhibitor, partial curve, poor fit] | –
9 | N#Cc1nc(-c2ccccc2)oc1N1CCN(Cc2ccccc2)CC1 | inconclusive: 28.2 µM [inhibitor, partial curve, poor fit] | –
10 | O=C(NCc1ccc2c(c1)CCN2C(=O)c1ccccc1)c1cc2ccccc2[nH]1 | inconclusive: 8.91 µM [inhibitor, partial curve, poor fit] | –
11 | CN(C)C[C@@H]1CN(C)C[C@H]1NC(=O)c1ccc(Cn2ccnc2)o1 | inconclusive: 20 µM [inhibitor, partial curve] | –
12 | CCOCCCNC(=O)c1c(C)noc1-c1cc(OC)c(OC)c(OC)c1 | active: 28.2 µM | –
13 | CCOC(=O)C1CCCN(CC(=O)N2CCCc3c2c(=O)oc2ccc(OCc4ccccc4)cc32)C1 (centres undefined) | inconclusive: 31.6 µM [inhibitor, partial curve, poor fit] | –
14 | Cc1ccccc1-c1nnn(Cc2cc(=O)oc3c(C)c(C)ccc23)n1 | inactive | –
15 | C=CCOC(=O)Nc1nc2c(s1)C[C@@H]1[C@](C)(CO)[C@H](O)CC[C@@]1(C)[C@@H]2CC(=O)N1CCCCC1 | inactive | –
16 | Cc1ccc(NC(=O)c2cc3n(n2)CC(c2ccc4c(c2)OCO4)OC3)cc1F (centres undefined) | active: 22.4 µM | –
17 | Cc1cc(C)c2c(c1C)OC/C2=N/O | inactive | –
18 | O=C(Nc1ccc(F)cc1)C(=O)c1c[nH]c2ccccc12 | inactive | –
19 | Cc1cnc(C(=O)N[C@@H]2CN(C3CCOCC3)C[C@H]2CN(C)C)cn1 | inconclusive: 17.8 µM [inhibitor, partial curve, poor fit] | –
20 | CCc1cccc(NC(=O)COC(=O)Cc2cccc3ccccc23)c1 | inactive | –
21 | Cc1cc(N2CCC(NCc3nc[nH]c3C)CC2)nc(-c2ccccc2O)n1 | inconclusive: 22.4 µM [inhibitor, single point] | –
22 | O=C(NCCc1noc(-c2ccncc2)n1)c1ccccc1F | inconclusive: 14.1 µM [inhibitor, partial curve] | –
23 | COc1ccc([C@H]2CN(C(=O)c3nc(N)nc4c3CCCC4)C[C@@H]2N)cc1 | active: 22.4 µM | –

Row | SMILES | Potency | activity change, negative = inhibition
24 | CC(C)Cn1c(=O)c(C(=O)Nc2ccncc2)c(O)c2ccccc21 | inconclusive: 25.1 µM [inhibitor, partial curve, poor fit] | –
25 | COCCn1c(-c2ccc(OC)cc2)nc2c1c(=O)[nH]c(=O)n2CC(C)C | inconclusive: 22.4 µM [inhibitor, partial curve, poor fit] | –
26 | NC(=O)c1cccc(-c2ccc3c(n2)CN(Cc2ccc(C(F)(F)F)cc2)C(=O)CO3)c1 | inconclusive: 25.1 µM [inhibitor, single point] | –
27 | CCN1C(=O)c2ccccc2Sc2ccc(NC(=O)c3ccc(Cl)cc3)cc21 | – | inactive: -12.1% [at 11.5 µM]
28 | Cc1nc(CN2CCOc3c(O)cc(-c4nc5ccccc5s4)cc3C2)no1 | inconclusive: 10 µM [inhibitor, partial curve, poor fit] | –
29 | CC(O)c1cc2n(n1)CCN(C(=O)c1nc3ccccc3n(C)c1=O)C2 (centres undefined) | active: 25.1 µM | –
30 | CCN(CC)C(=O)Oc1ccc2oc(=O)c(-c3ccc(OC)cc3)c(C)c2c1 | inconclusive: 28.2 µM [inhibitor, partial curve, poor fit] | –
31 | Cc1ccc(NC(=O)c2sc3nc4c(cc3c2N)CN(Cc2ccccc2)CC4)cc1 | inconclusive: 25.1 µM [inhibitor, partial curve, poor fit] | –
32 | O=C(CCn1ccc(=O)[nH]c1=O)N1CCc2nc(-c3ccccc3)[nH]c2C1 | inconclusive: 11.2 µM [inhibitor, partial curve, poor fit] | –
33 | CSc1ccc(C(C)=O)cc1 | inactive | –
34 | Cc1noc2c(N(C)C)cc(-c3ccc(Cl)cc3)nc12 | inconclusive: 31.6 µM [inhibitor, single point] | –
35 | Cc1ccc(C)c(S(=O)(=O)c2nnn3c2nc(NCCCOC(C)C)c2ccccc23)c1 | inconclusive: 31.6 µM [inhibitor, full curve, poor fit] | –
36 | NC(=O)COC(=O)c1ccc(-c2ccc(O)cc2)cc1 | inconclusive: 39.8 µM [inhibitor, single point] | –
37 | CCCS(=O)(=O)N1CCN(c2ccc(N3CCCCCC3)nn2)CC1 | inconclusive: 25.1 µM [inhibitor, partial curve, poor fit] | –
38 | CCN(CC)CCCNC(=O)c1nn(C)c2c1CS(=O)(=O)c1ccccc1-2 | inactive | –
39 | CCOc1ccc(C(=O)NCCn2ccn3nc(-c4cc(C)ccc4C)cc3c2=O)cc1 | inactive | –
40 | COc1ccc2c(c1)c1c(c(=O)n(-c3ccc(F)c(Cl)c3)c(=O)n1Cc1ccccc1C)n2C | inconclusive: 1.78 µM [inhibitor, partial curve, poor fit] | –
41 | Cc1ccc2sc(NC(=O)c3ccc4c(c3)OCCO4)nc2c1C | inconclusive: 28.2 µM [inhibitor, partial curve, poor fit] | –
42 | CCOC(=O)c1c(C)[nH]c(C(=O)C(C)Nc2cc(OC)ccc2OC)c1C (centres undefined) | inactive | –
43 | CC(NC(=O)/C(C#N)=C\c1cccc(Oc2ccccc2)c1)c1ccccc1 (centres undefined) | inconclusive: 25.1 µM [inhibitor, partial curve, poor fit] | –
44 | Fc1cccc(-c2nc(CSc3ncn[nH]3)co2)c1 | inactive | –
45 | CCn1c(SCC(=O)Nc2ccc(C(=O)O)cc2)nnc1-c1ccccc1Cl | inactive | –
46 | O=C(Nc1cc(Cl)cc(Cl)c1)c1ccn2nccc2c1 | inconclusive: 31.6 µM [inhibitor, single point] | –

Row | SMILES | Potency | activity change, negative = inhibition
47 | Cc1cccnc1CNC[C@H]1O[C@@H]2C[C@@H](CC(=O)NCc3nccn3C)O[C@@H]2[C@@H]1O | inconclusive: 28.2 µM [inhibitor, partial curve, poor fit] | –
48 | COc1ccc(CC2(CO)CCN(c3nccc(N)n3)CC2)cc1 | inconclusive: 25.1 µM [inhibitor, single point] | –
49 | Cc1sc(NC(=O)C(Cc2ccccc2)Cc2ccccc2)c(C#N)c1C | inactive | –
50 | COc1ccc2[nH]c3c(c2c1)CCNC31CCN(S(=O)(=O)c2c(C)nn(C)c2C)CC1 | inconclusive: 22.4 µM [inhibitor, partial curve] | –
51 | COc1ccc(NC2CCCN(C(=O)C(=O)CC(C)C)C2)cc1OC (centres undefined) | inconclusive: 15.8 µM [inhibitor, single point] | –
52 | COc1cccc(/C=C2/SC(=S)N(CC(=O)NNC(=O)c3ccccc3O)C2=O)c1 | inconclusive: 28.2 µM [inhibitor, single point] | –
53 | COc1cc(C(=O)N/N=C(\C)c2ccccn2)cc(OC)c1OC | inconclusive: 39.8 µM [inhibitor, single point] | –
54 | Cc1cc(C)c(CNC(=O)c2cc(-c3ccc(F)cc3)cc3ncn(C)c23)c(=O)[nH]1 | inconclusive: 31.6 µM [inhibitor, single point] | –
55 | Cc1cccn2c(=O)c3cc(C(=O)NC(C)c4ccccc4)c(=N)n(CCCO)c3nc12 (centres undefined) | inconclusive: 6.31 µM [inhibitor, partial curve, poor fit] | –
56 | O=C(Nc1ccc(S(=O)(=O)NCc2ccco2)cc1)c1cccc(F)c1 | inconclusive: 28.2 µM [inhibitor, single point] | –
57 | O=C([C@@H]1C[C@H](Oc2ccccc2)CN1C(=O)C1CCC1)N1CCCC1 | inactive | –
58 | CCn1cc(C(=O)OCC(=O)Nc2cccc(C(C)=O)c2)c(=O)c2ccc(C)nc21 | inconclusive: 2 µM [inhibitor, partial curve, poor fit] | –
59 | Oc1ccc(C2(c3ccccc3O)CCCCC2)cc1 | inactive | –
60 | COC(=O)c1cnc(N2CCN(c3ccccn3)CC2)c2ccccc12 | inconclusive: 35.5 µM [inhibitor, single point] | –
61 | Cc1nn(C(C)C)c(C)c1N | inactive | –
62 | C[C@]1(CO)[C@H]2Cc3sc(NC(=O)c4ccc(F)cc4)nc3[C@@H](CC(=O)NC3CCCCC3)[C@]2(C)CC[C@H]1O | inconclusive: 35.5 µM [inhibitor, single point] | –
63 | Cc1oc2ccn(Cc3ccc(F)cc3)c(=O)c2c1C(=O)N1CCN(c2ccccn2)CC1 | active: 22.4 µM | –
64 | CSc1ccccc1NC(=O)c1ccc(C)c(C)c1 | inactive | –
65 | COCCCNc1oc(-c2ccc(COc3ccc(Cl)cc3)o2)nc1C#N | inconclusive: 31.6 µM [inhibitor, partial curve, poor fit] | –
66 | CCC(N)CC12CC3CC(CC(C3)C1)C2 (centres undefined) | inactive | –
67 | Cc1oc2cc(OC(=O)c3ccco3)ccc2c(=O)c1-c1ccc(Br)cc1 | inactive | –
68 | Cc1ccsc1C(=O)NCc1ccc(Cl)cc1 | inactive | –
69 | Cn1c(C(=O)NC(C)(C)C)cc2c1CCN(Cc1cccc(F)c1)C2 | inconclusive: 20 µM [inhibitor, single point] | –
